Experimental data: the supplement of paper PMC8728848
Some of the results follow.

What was measured:
Assay in all cases: glycan array binding signal (z-score within array); higher = stronger binding
Settings in all cases: glycan notation: IUPAC condensed, linker removed
[1] = target: GlcNAc(a1-4)Gal(b1-4)GlcNAc(b1-3)Gal(b1-4)Glc
Outline: (§1)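 Glycan array data were curated from 3228 arrays in the Consortium for Functional Glycomics database and kept only where the protein sequence was available. Glycan names were converted to IUPAC-condensed notation, and columns mapping to the same glycan were averaged. The binding signal is a within-array Z-score, averaged across arrays of the same protein sequence at different concentrations or buffers and across linkers. Negative Z-scores can be read as non-binding.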

[2] = target: GlcNAc(a1-4)Gal(b1-4)GlcNAc(b1-3)Gal(b1-4)GlcNAc
Outline: as §1

[3] = target: GlcNAc(a1-4)Gal(b1-4)GlcNAc(b1-3)Gal(b1-4)GlcNAc(b1-3)Gal(b1-4)GlcNAc
Outline: as §1

[4] = target: GlcNAc(a1-4)Gal(b1-4)GlcNAc(b1-3)Gal(b1-4)[Fuc(a1-3)]GlcNAc(b1-3)Gal(b1-4)[Fuc(a1-3)]GlcNAc
Outline: as §1

[5] = target: GlcNAc(a1-6)Gal(b1-4)GlcNAc
Outline: as §1

[6] = target: GlcNAc(b1-2)Gal(b1-3)GalNAc
Outline: as §1

[7] = target: GlcNAc(b1-2)Man(a1-3)[GlcNAc(b1-2)Man(a1-6)]Man(b1-4)GlcNAc(b1-4)GlcNAc
Outline: as §1

[8] = target: GlcNAc(b1-2)Man(a1-3)[GlcNAc(b1-2)Man(a1-6)]Man(b1-4)GlcNAc(b1-4)[Fuc(a1-6)]GlcNAc
Outline: as §1

[9] = target: GlcNAc(b1-2)Man(a1-3)[GlcNAc(b1-4)][GlcNAc(b1-2)Man(a1-6)]Man(b1-4)GlcNAc(b1-4)GlcNAc
Outline: as §1

[10] = target: GlcNAc(b1-2)[GlcNAc(b1-4)]Man(a1-3)[GlcNAc(b1-2)Man(a1-6)]Man(b1-4)GlcNAc(b1-4)GlcNAc
Outline: as §1

[11] = target: GlcNAc(b1-2)[GlcNAc(b1-4)]Man(a1-3)[GlcNAc(b1-4)][GlcNAc(b1-2)Man(a1-6)]Man(b1-4)GlcNAc(b1-4)GlcNAc
Outline: as §1

[12] = target: GlcNAc(b1-2)[GlcNAc(b1-4)]Man(a1-3)[GlcNAc(b1-4)][GlcNAc(b1-2)[GlcNAc(b1-6)]Man(a1-6)]Man(b1-4)GlcNAc(b1-4)GlcNAc
Outline: as §1

[13] = target: GlcNAc(b1-2)[GlcNAc(b1-6)]Man(a1-6)[GlcNAc(b1-2)Man(a1-3)]Man(b1-4)GlcNAc(b1-4)GlcNAc
Outline: as §1

[14] = target: GlcNAc(b1-2)[GlcNAc(b1-6)]Man(a1-6)[GlcNAc(b1-2)Man(a1-3)][GlcNAc(b1-4)]Man(b1-4)GlcNAc(b1-4)GlcNAc
Outline: as §1

[15] = target: GlcNAc(b1-3)Gal
Outline: as §1

[16] = target: GlcNAc(b1-3)Gal(b1-3)GalNAc
Outline: as §1

[17] = target: GlcNAc(b1-3)Gal(b1-4)Glc
Outline: as §1

[18] = target: GlcNAc(b1-3)Gal(b1-4)GlcNAc
Outline: as §1

[19] = target: GlcNAc(b1-3)Gal(b1-4)GlcNAc(b1-3)Gal(b1-4)GlcNAc
Outline: as §1

[20] = target: GlcNAc(b1-3)GalNAc
Outline: as §1

[21] = target: GlcNAc(b1-3)Man
Outline: as §1

[22] = target: GlcNAc(b1-3)[GlcNAc(b1-4)][GlcNAc(b1-6)]GlcNAc
Outline: as §1

[23] = target: GlcNAc(b1-3)[GlcNAc(b1-6)]Gal(b1-4)GlcNAc
Outline: as §1

[24] = target: GlcNAc(b1-3)[GlcNAc(b1-6)]GalNAc
Outline: as §1

[25] = target: GlcNAc(b1-4)Gal(b1-4)GlcNAc
Outline: as §1

[26] = target: GlcNAc(b1-4)GlcNAc
Outline: as §1

[27] = target: GlcNAc(b1-4)GlcNAc(b1-4)GlcNAc
Outline: as §1

[28] = target: GlcNAc(b1-4)GlcNAc(b1-4)GlcNAc(b1-4)GlcNAc(b1-4)GlcNAc
Outline: as §1

[29] = target: GlcNAc(b1-4)GlcNAc(b1-4)GlcNAc(b1-4)GlcNAc(b1-4)GlcNAc(b1-4)GlcNAc
Outline: as §1

[30] = target: GlcNAc(b1-4)[GlcNAc(b1-6)]GalNAc
Outline: as §1

[31] = target: GlcNAc(b1-6)Gal(b1-4)GlcNAc
Outline: as §1

[32] = target: GlcNAc(b1-6)GalNAc
Outline: as §1

[33] = target: GlcNAc3Prop(b1-4)GlcNAc
Outline: as §1

[34] = target: GlcNAc6S(b1-3)Gal(b1-4)GlcNAc
Outline: as §1

[35] = target: Kdn(a2-3)Gal(b1-3)GalNAc
Outline: as §1

[36] = target: Kdn(a2-3)Gal(b1-3)GlcNAc
Outline: as §1

[37] = target: Kdn(a2-3)Gal(b1-4)Glc
Outline: as §1

[38] = target: Kdn(a2-3)Gal(b1-4)GlcNAc
Outline: as §1

[39] = target: Kdn(a2-3)Gal(b1-4)[Fuc(a1-3)]GlcNAc
Outline: as §1

[40] = target: Kdn(a2-6)Gal(b1-4)GlcNAc
Outline: as §1

[41] = target: Man(a1-2)Man(a1-2)Man(a1-3)Man
Outline: as §1

[42] = target: Man(a1-2)Man(a1-2)Man(a1-6)[Man(a1-3)]Man
Outline: as §1

[43] = target: Man(a1-2)Man(a1-3)Man
Outline: as §1

[44] = target: Man(a1-2)Man(a1-3)[Man(a1-2)Man(a1-6)]Man
Outline: as §1

[45] = target: Man(a1-2)Man(a1-3)[Man(a1-2)Man(a1-6)]Man(a1-6)[Man(a1-2)Man(a1-2)Man(a1-3)]Man
Outline: as §1

B1: Gal 7 (Canis lupus) (protein)
chain: MAGSSNVPHKTSLPEGIRVGTVMRIRGVVPNKAGRFYVNLLCGEAPGSEAALHFNPRLDESTVVFNTLEQGAWGREERGTGIPFQRGQPFDVLLIATDEGFKAVVGDSEYHHFRYRIPPARVRLLEVGGDLQLESVSVF
glycan array binding signal (z-score) [1]: 1.07 | glycan array binding signal (z-score) [2]: 2.48 | glycan array binding signal (z-score) [3]: 2.48 | glycan array binding signal (z-score) [4]: -0.193 | glycan array binding signal (z-score) [5]: -0.191 | glycan array binding signal (z-score) [6]: -0.206 | glycan array binding signal (z-score) [7]: -0.215 | glycan array binding signal (z-score) [8]: -0.208 | glycan array binding signal (z-score) [9]: -0.186 | glycan array binding signal (z-score) [10]: -0.192 | glycan array binding signal (z-score) [11]: -0.18 | glycan array binding signal (z-score) [12]: -0.184 | glycan array binding signal (z-score) [13]: -0.164 | glycan array binding signal (z-score) [14]: -0.18 | glycan array binding signal (z-score) [15]: -0.194 | glycan array binding signal (z-score) [16]: -0.21 | glycan array binding signal (z-score) [17]: -0.207 | glycan array binding signal (z-score) [18]: -0.213 | glycan array binding signal (z-score) [19]: 0.371 | glycan array binding signal (z-score) [20]: -0.219 | glycan array binding signal (z-score) [21]: -0.216 | glycan array binding signal (z-score) [22]: -0.199 | glycan array binding signal (z-score) [23]: -0.22 | glycan array binding signal (z-score) [24]: -0.209 | glycan array binding signal (z-score) [25]: -0.211 | glycan array binding signal (z-score) [26]: -0.211 | glycan array binding signal (z-score) [27]: -0.171 | glycan array binding signal (z-score) [28]: -0.218 | glycan array binding signal (z-score) [29]: -0.211 | glycan array binding signal (z-score) [30]: -0.204 | glycan array binding signal (z-score) [31]: -0.21 | glycan array binding signal (z-score) [32]: -0.213 | glycan array binding signal (z-score) [33]: -0.214 | glycan array binding signal (z-score) [34]: -0.212 | glycan array binding signal (z-score) [35]: -0.21 | glycan array binding signal (z-score) [36]: -0.217 | glycan array binding signal (z-score) [37]: -0.206 | glycan array binding signal (z-score) [38]: -0.203 | glycan array binding signal (z-score) [39]: -0.21 | glycan array binding signal (z-score) [40]: -0.21 | glycan array binding signal (z-score) [41]: -0.217 | glycan array binding signal (z-score) [42]: -0.188 | glycan array binding signal (z-score) [43]: -0.215 | glycan array binding signal (z-score) [44]: -0.209 | glycan array binding signal (z-score) [45]: -0.214
